In article PMC4705661:
No constants are given. Whether binding was seen depends on the method and setting. Some results given as binding are weak or reduced against the parent protein; the word gives no strength. Tags and fused reporters may be left off the sequences shown. Each block holds one binder with its values, some of them ahead of it.

The chains behind the UniProt entries cited, without tags or fusion partners. Where a name states a change or a piece, a line headed by the entry shows the natural chain unless it says otherwise. Residues count along the entry.
UniProt P37542: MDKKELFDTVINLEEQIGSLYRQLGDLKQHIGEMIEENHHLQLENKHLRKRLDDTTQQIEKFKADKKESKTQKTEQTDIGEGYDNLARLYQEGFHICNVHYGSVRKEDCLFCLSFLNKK
YabA^62–119, GAL4 fusion (yeast two-hybrid): residues 62-119 of P37542

Legend:
[1] = target: YabA D108S, BD fusion (B. subtilis) (UniProt P37542); test: two-hybrid; BD-YabA wild type or mutants (pGBDU) mated with AD-DnaA, AD-DnaN or AD-YabA (pGAD); growth on -LUH and -LUA
[2] = target: YabA E107R, BD fusion (B. subtilis) (UniProt P37542); test: as above
[3] = target: YabA H95I, BD fusion (B. subtilis) (UniProt P37542); test: as above
[4] = target: YabA E107T, BD fusion (B. subtilis) (UniProt P37542); test: as above
[5] = target: YabA F94S, BD fusion (B. subtilis) (UniProt P37542); test: as above
[6] = target: YabA H95G, BD fusion (B. subtilis) (UniProt P37542); test: as above
[7] = target: YabA H95L, BD fusion (B. subtilis) (UniProt P37542); test: as above
[8] = target: YabA F94Y, BD fusion (B. subtilis) (UniProt P37542); test: as above
[9] = target: YabA F111Y, BD fusion (B. subtilis) (UniProt P37542); test: as above
[10] = target: YabA R105E, BD fusion (B. subtilis) (UniProt P37542); test: as above
[11] = target: YabA full length, GAL4 fusion (yeast two-hybrid) (B. subtilis) (UniProt P37542); test: as above
[12] = target: YabA full length expressed from the p3HB vector (third protein of the yeast three-hybrid assay) (B. subtilis) (UniProt P37542); test: yeast three-hybrid; full length YabA from p3HB co-expressed with BD and AD fusions of DnaA and DnaN; growth on SD-LUWH and SD-LUWA
[13] = target: YabA^62–119, GAL4 fusion (yeast two-hybrid) (B. subtilis) (UniProt P37542); test: two-hybrid; GAL4 BD (pGBDU-C1) and AD (pGAD-C1) fusions, mating of PJ69-4 haploids, growth on SD-LUH and SD-LUA
[14] = target: N-terminally histidine tagged YabA (co-expressed with DnaN) (B. subtilis) (UniProt P37542); test: co-purification (HisTrap, then gel filtration); histidine tagged YabA and DnaN co-expressed in E. coli; complex eluted from HisTrap with imidazole and run on Superdex 200 in 30 mM Tris pH 8, 150 mM NaCl, 5% glycerol

binding [1]: no binding
binding [2]: no binding
binding [3]: no binding
binding [4]: no binding
binding [5]: binds
binding [6]: binds
binding [7]: no binding
binding [8]: binds
binding [9]: no binding
binding [10]: binds
binding [11]: binds
binding [12]: binds
binding [13]: binds
B1: DnaN, GAL4 fusion (yeast two-hybrid and three-hybrid) (protein, UniProt P05649 1-378)
chain: MKFTIQKDRLVESVQDVLKAVSSRTTIPILTGIKIVASDDGVSFTGSDSDISIESFIPKEEGDKEIVTIEQPGSIVLQARFFSEIVKKLPMATVEIEVQNQYLTIIRSGKAEFNLNGLDADEYPHLPQIEEHHAIQIPTDLLKNLIRQTVFAVSTSETRPILTGVNWKVEQSELLCTATDSHRLALRKAKLDIPEDRSYNVVIPGKSLTELSKILDDNQELVDIVITETQVLFKAKNVLFFSRLLDGNYPDTTSLIPQDSKTEIIVNTKEFLQAIDRASLLAREGRNNVVKLSAKPAESIEISSNSPEIGKVVEAIVADQIEGEELNISFSPKYMLDALKVLEGAEIRVSFTGAMRPFLIRTPNDETIVQLILPVRTY

binding [14]: binds
B2: DnaN (co-expressed with histidine tagged YabA) (protein, UniProt P05649 1-378)
chain: B1 chain
